Data as given in the supplement of paper PMC11417369.
± gives the standard deviation of the averaged measurements. The list shows a part of the results.

Test system: PfAP2-LT AP2 domain (GST-tagged)
Test: gcPBM binding intensity (ln(normalized median fluorescence intensity)); higher = stronger DNA binding
How it was run: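 For binding intensity, the highest Masliner-normalised natural-log median intensity across replicate spots of either probe orientation was taken. Protein bound to the array was stained with Alexa488 anti-GST antibody and scanned at 488 nm. The protein, GST-tagged P. falciparum DNA-binding domains from E. coli at about 25 μg on average, had been applied for 1 h to an Agilent 4 × 180k array of primer-extended double-stranded 36-bp intergenic genomic probes and negative controls.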

| Sequence | gcPBM binding intensity (ln) |
| --- | --- |
| GTATACTTAACATTCACACATATATATATATATAAA [CACACA_site4596] | 9.12 ± 0.22 |
| ATATATATATATATATGTACTTATAATTCTTCAATT [XGTACX_site5627] | 9.515 ± 0.035 |
| AATTATTTACCTTCTTTGAAAGAACAAATGATACAA [CACACA_negctrl_site1315] | 8.47 ± 0.42 |
| CTAAAACAATAAATCACACATACATAGGATAATATA [CACACA_site4247] | 8.98 ± 0.45 |
| ATTTATAATCTGTATAGTACACATATATACATGGTT [XGTACX_site2714] | 8.93 ± 0.43 |
| TCTTAAATATACAGTTGTACTAAACAAAAAAAAAAA [XGTACX_site2639] | 8.65 ± 0.47 |
| AAAATATACACACATATGTATATAATATTATATGTA [GTGCAC_negctrl_site496] | 9.15 ± 0.42 |
| TATAAAAAATGATAAAGTACTTTATACACACAAATA [XGTACX_site8486] | 9.06 ± 0.44 |
| TATATATATATATATTGTACATATTGTATATATTGT [XGTACX_site3212] | 9.33 ± 0.38 |
| TGTTACATATTATAAATACATTAACTATTATATGTA [CACACA_negctrl_site1735] | 8.6 ± 0.37 |
| TTTATAAAAAATTTTTTTTTTTTTTTTTAAATATAT [CACACA_negctrl_site146] | 8.08 ± 0.42 |
| TATATATATATTTATACACACATTAGTGTATCCATG [CACACA_site5609] | 9.45 ± 0.38 |
| TTAACAAATGGACACACACACACACCCAAAAAAAAA [CACACA_site4443] | 9.97 ± 0.042 |
| TTATATTAAACAAACACACACATATATATATATATA [CACACA_site2382] | 9.54 ± 0.49 |
| ATCAATACACATATATGTACATATAATAATTATCTT [XGTACX_site662] | 8.96 ± 0.42 |
| TTATTTTTTCAAGAATGTACTTACGAATTGTCGTAT [XGTACX_site1363] | 8.65 ± 0.4 |
| CAAAAAAACAAACACACACACACACCCATATATATA [CACACA_site3653] | 10.25 ± 0.085 |
| TAATTACCATATGGTACACACATATATATATGTATA [CACACA_site3487] | 9.21 ± 0.43 |
| TTGGCATACAGACACACACACACACGCCCACATATA [CACACA_site6425] | 10.1 ± 0.38 |
| TTTTTTTTTTGTAGTTGTACGAACTAGCTATTTATG [XGTACX_site692] | 8.77 ± 0.48 |
| ATATATATATATATATGTACATATATATATTTTTTA [XGTACX_site5987] | 9.62 ± 0.26 |
| TATATATATATATGTTGTACTTTTAATTTAAATGTA [XGTACX_site4239] | 9.19 ± 0.57 |

| Sequence | gcPBM binding intensity (ln) |
| --- | --- |
| TTTTTTTTTTATTCTACACACATATGTTTTTATATG [CACACA_site182] | 9.07 ± 0.44 |
| TTTTTTTTTAAGCAAAGGAAATCAAAATAAAAATAT [CACACA_negctrl_site719] | 8.19 ± 0.4 |
| TTTTTTTTTTTTTTTTGTACACATAGTAAAAATTAA [XGTACX_site2410] | 8.27 ± 0.35 |
| TGTTATTAAAACGTGACACACAATATATATATATAT [CACACA_site3539] | 9.29 ± 0.15 |
| TTATAAATTATATATATGACCAATAATTGTGAGCAT [CACACA_negctrl_site725] | 8.63 ± 0.35 |
| AATAAATTAATAAGGTGTACATAAATAATTTATATA [XGTACX_site8278] | 8.77 ± 0.54 |
| ATATATTATTATATATGTACTTATTTATAAATGATT [XGTACX_site7597] | 8.58 ± 0.33 |
| AAATAGGGAATTTATGCACACAGTTAAGGGGGAAAA [CACACA_site2071] | 9.28 ± 0.26 |
| TAAATATAAACACAAACACACACATATATATATATA [CACACA_site7978] | 10.04 ± 0.035 |
| ATTCAAAAGGTTTAATGTACGTGATGTTTCACAAAT [XGTACX_site784] | 8.63 ± 0.34 |
| ATTTTTTTTTTTTTTTTTTTTTTTTTCTCTCTCACT [CACACA_negctrl_site1046] | 8.67 ± 0.51 |
| CATACTCTACATAGATGTACTCATTTAAAAAAAAAA [XGTACX_site6945] | 8.29 ± 0.57 |
| AAATATATATATATAATACACACTAAAGTAACATAA [CACACA_site2870] | 9.06 ± 0.4 |
| TGTCGACATGTAGGTAGTACTATTAAAAATAATGAT [XGTACX_site3849] | 8.91 ± 0.51 |
| ATAGAAGGACATATAACACACATATATTATAAGTAT [CACACA_site5461] | 9.34 ± 0.43 |
| GGATGATTAAGGGGGACACACGTTTATATATTTATA [CACACA_site4342] | 9.22 ± 0.22 |
| CACGCATACAGACACACACACACACCCATATATATA [CACACA_site636] | 10.2 ± 0.37 |
| TATGATATGTATGGAAGTACGAAGAGGGATGATCAG [XGTACX_site1677] | 8.77 ± 0.52 |
| TTAAAAATAAAACAAAGTACTCAAGTTATTGTCTTT [XGTACX_site1584] | 8.51 ± 0.41 |
| ATTTTCAAATTAAAATGTACAAATGAAAGAAAGGGA [XGTACX_site7048] | 8.74 ± 0.46 |
| TGAAATAAAATTTGTACACACATATATATATATATA [CACACA_site586] | 9.555 ± 0.021 |
| GTGAATCCTAAGTGTACACATCTTACAGATATATAT [CACACA_site4836] | 9.12 ± 0.46 |

| Sequence | gcPBM binding intensity (ln) |
| --- | --- |
| GCACAAATCATCAAATGTACAGAAAATGCTGTCAAT [XGTACX_site5037] | 9.06 ± 0.33 |
| ATATAGGTATAATACACACACTAATATGTAACTGTA [CACACA_site7011] | 9.37 ± 0.49 |
| TTCCTTCATTGGAAAAGTACACAATATTGTCGTTTA [XGTACX_site8057] | 8.86 ± 0.42 |
| CGTAAATTTTTCTAAGTGCATGTTAATTTTTCAATT | 8.62 ± 0.42 |
| TATTTATTATGATACTCATATTATTCTATGATTAAA [GTGCAC_negctrl_site486] | 8.5 ± 0.41 |
| TAAATACCTATATGGCGTACTATTATCATAGTATAT [XGTACX_site5423] | 8.95 ± 0.43 |
| ACATTCTATACATACACACCCACACCCAAAAAAAAA [CACACA_site863] | 9.59 ± 0.042 |
| TATATATCAATATACACACACACATATTTATTTATA [CACACA_site6858] | 9.6 ± 0.22 |
| TTTCTTAAATATATGCGTACTCAAAATTGTTCTACA [XGTACX_site7995] | 8.49 ± 0.5 |
| TAACCACAAAAATAAAATCAAAAAAAAAAAAAAAAA [CACACA_negctrl_site1727] | 8.23 ± 0.54 |
| AAAAATATAATATAATGTACACATAAACAAAAAAAA [XGTACX_site3658] | 8.98 ± 0.52 |
| AACAGACATACATACACACATACATACAGACATACA [CACACA_site1942] | 9.64 ± 0.45 |
| ATATATATATATTTCGCACACATAATCTTATTAAAT [CACACA_site2579] | 9.23 ± 0.24 |
| TAAAATAAAACAAACACACACACACCGACACAAAAA [CACACA_site5993] | 10.1 ± 0.035 |
| TATAAACCTACATACACACATACAATAAGTAAAATG [CACACA_site1921] | 9.31 ± 0.33 |
| TACTATGCCCCATATAAACACACAAATAAAAAGAAT [CACACA_site8857] | 9.22 ± 0.38 |
| ATGTATCATAAGAACTGTGTGGTTACAGACACGAAC [GTGCAC_negctrl_site416] | 9.08 ± 0.45 |
| CTATGCATTTATAGTGCATGTAAAATATAAGATAAT [TGCATGCA_site71] | 8.69 ± 0.47 |
| TATAATTAATTAGAAGTGCATTAGGTAACAACTGTC [GTGCAC_site9746] | 8.79 ± 0.38 |
| AACTATATATATAATTCACACATGTTTTAAAATTTT [CACACA_site4971] | 8.76 ± 0.38 |
| AACGCAGTTTAATATACACACCAAAAAAAAAAAAAG [CACACA_site5643] | 8.93 ± 0.43 |
| ATATATTCTTATTGCTGTACACATATTTTCTAAAAA [XGTACX_site4851] | 8.75 ± 0.38 |

| Sequence | gcPBM binding intensity (ln) |
| --- | --- |
| TTTCCTTTTTTAATATGTACACATATTATTATATCT [XGTACX_site3079] | 8.99 ± 0.62 |
| TAAAGAGAAATATGTACATGCGAAAATGCCTTAAAT [TGCATGCA_site1050] | 8.85 ± 0.37 |
| ATATATACTATAATAGTGCATTAAAAAAGTAAAAAT | 8.92 ± 0.51 |
| TTTCTTCGAAATAGAACACTTGTGCAAAATAAGCAA [XGTACX_negctrl_site361] | 8.54 ± 0.42 |
| TGAACAAAAAAAAATTGTACTTTTTTTTTAATATTT [XGTACX_site7172] | 8.2 ± 0.45 |
| AAAAAAAACAATCTCATACACACTAGGGATTAATTA [CACACA_site1776] | 8.74 ± 0.37 |
| ATTTTTTTATAAAATTTTTATATAATTTATTATAAA [GTGCAC_negctrl_site96] | 8.12 ± 0.49 |
| AGACAATAATATAATCGTACAATAAATAAAATAAAA [XGTACX_site5231] | 9.02 ± 0.55 |
| AAATATAATATACAAAGTACTTTTTCATCTTATATA [XGTACX_site8771] | 8.55 ± 0.38 |
| AAAATAATCTTTTGATTGCACTGTTACATTTTTTCT [GTGCAC_site9563] | 8.83 ± 0.49 |
| CTTATGTGCATACCTACACACTTACATATATATATA [CACACA_site8973] | 9.02 ± 0.31 |
| TTAAATGTTGGTTGTAGTACTCCATATGTTGTTTTA [XGTACX_site5312] | 8.91 ± 0.47 |
| TTTGGAATATTAATTGTGCACTTAAAAAGTTAATTA | 8.38 ± 0.39 |
| TATATATATATAAGATGTACCCTTTGAAATAATAAT [XGTACX_site7215] | 8.72 ± 0.41 |
| TGATACTGCAAAAAATATAAAAAAATAATAAAATAA [CACACA_negctrl_site791] | 8.49 ± 0.53 |
| AACAAAAGTAATTAAAAACAATACAAACATATGTTT [XGTACX_negctrl_site220] | 8.65 ± 0.49 |
| TGGATAAAATAAAAATGTACTTAACATTTATATTTT [XGTACX_site712] | 8.31 ± 0.52 |
| TTTCTAATTTATATCACACACATATAAATATAGTAA [CACACA_site6210] | 8.72 ± 0.39 |
| AAATAATATAAACATACACACACACCGATATATATA [CACACA_site8945] | 9.92 ± 0.17 |
| ATGTATGAAAAAATGTGTACATAATTTTTTTTTTTT [XGTACX_site5444] | 8.77 ± 0.35 |
| ATCATTCAAAAATGCTGTACTAGGGGAAAACGTGTT [XGTACX_site7168] | 8.81 ± 0.5 |
| ATATATAGGTTCCCTTTTCTTTTTTTTTTTTTTTTT [CACACA_negctrl_site1159] | 8.45 ± 0.46 |
